Test results as given in PubChem BioAssay AID1347417 (National Center for Advancing Translational Sciences (NCATS), 2020).
In all, about 120,000 compounds went through this assay and about 5,300 (4.4%) were called active. The shares of active, inactive and inconclusive entries below differ from those in the screen. Calls follow the shape of the dose curve; as a rule, active = well fitted inhibition curve with a large enough effect; inconclusive = small, poorly fitted or top-dose-only effect; inactive = no such curve, though single readings can be large or run the other way. Potencies of inconclusive entries are doubtful fits and often do not repeat.

Test: qHTS Primary assay for Inhibitors of Plasmodium falciparum Dd2 growth in vitro; also: nearly all actives have a fitted effect of over 65% in size;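 as to activity, negative = inhibition: plate controls were DMSO vehicle for no effect and reference drug for full effect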
Settings: P. falciparum Dd2 growth, SYBR Green, 72 h; activity, negative = inhibition: at 28.9 µM (top of the series) unless noted; series mostly up to 28.9 µM
Summary of the method: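 Infected erythrocytes (Dd2, 0.3% parasitemia, 2.5% hematocrit final) are added to compound in RPMI-1640/Albumax II medium, grown 72 h at 37C in low oxygen, then lysed with saponin/Triton-X containing SYBR Green and read by fluorescence.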
Potency is read from the fitted curve at half-maximal effect; tags tell the direction and shape of the fitted curve.

SMILES | Potency | activity, negative = inhibition
COc1cccc(/C=C(\C#N)c2nc3ccc(C)cc3[nH]2)c1 | inconclusive: 10 µM [inhibitor, single point] | –
COCCN1C(=O)c2ccccc2C(C(=O)Nc2ccc3c(c2)OCO3)C12CCCC2 (stereo not drawn) | active: 12.6 µM | –
O=C(CC1COCCN1)N(CCc1c[nH]c2ccccc12)C1CCCCC1 (stereo not drawn) | active: 8.91 µM | –
CCOC(=O)c1c(C)[nH]c(C)c1S(=O)(=O)N(C)CC(=O)Nc1cc(Cl)ccc1OC | active: 10 µM | –
CN1c2cc(C(=O)Nc3cccc(OC(F)(F)F)c3)ccc2C(=O)N2CCCCCC21 (stereo not drawn) | inconclusive: 5.01 µM [inhibitor, partial curve, poor fit] | –
O=C(CSC1=Nc2ccccc2C2=NC(CCC(=O)NC3CCCCC3)C(=O)N12)Nc1cccc(Cl)c1 (stereo not drawn) | inconclusive: 14.1 µM [inhibitor, partial curve, poor fit] | –
O=C(Cc1ccc(N(Cc2cccc(F)c2)C(=O)c2ccco2)cc1)NCc1ccco1 | inconclusive: 2 µM [inhibitor, single point] | –
Cc1ccc(CC(=O)N2CCCC(c3noc(COc4ccccc4)n3)C2)cc1 (stereo not drawn) | inconclusive: 7.94 µM [inhibitor, partial curve, poor fit] | –
O=C1Nc2ccccc2OCC12CCN(Cc1ccc(C(F)(F)F)cc1)CC2 | inconclusive: 12.6 µM [inhibitor, partial curve, poor fit] | –
COc1ccc(NC(=O)N2CCC3(CC2)CC(N(C(=O)NC(C)C)C2CC2)CCO3)cc1 (stereo not drawn) | inactive | –
COc1ccc(NC(=O)Cn2c(=O)n(-c3ccccc3)c(=O)c3ccc(C(=O)NCc4ccc5c(c4)OCO5)cc32)cc1 | inconclusive: 1.58 µM [inhibitor, single point] | –
COc1ccc(CN2CCOc3nc(-c4cccc(NC(C)=O)c4)ncc3C2=O)cc1 | inconclusive: 5.62 µM [inhibitor, single point] | –
Cc1ccc(C2c3[nH]c4ccccc4c3CCN2C(=O)c2ccc(N(C)C)cc2)cc1 (stereo not drawn) | inconclusive: 11.2 µM [inhibitor, single point] | –
CC1(C)[C@H](Cc2cc(CC3CCCCC3)on2)C[C@@H]1NC(=O)C1CCCC1 | inconclusive: 17.8 µM [inhibitor, single point] | –
O=C1NC(=NC2CCCCC2)C2(CCN(Cc3ccccc3)C2)N1c1cccnc1 (stereo not drawn) | inconclusive: 17.8 µM [inhibitor, single point] | –
CCOc1ccccc1CNC(=O)c1cc2n(n1)CC(c1ccc3c(c1)OCO3)OC2 (stereo not drawn) | inconclusive: 20 µM [inhibitor, partial curve, poor fit] | –
COC(C)c1ccc(-c2cc(C(=O)O)cc(S(=O)(=O)NC(C)C)c2)cc1 (stereo not drawn) | inconclusive: 2 µM [inhibitor, partial curve] | –
COc1cccc(NC(=O)c2sc3nc(C)c(C(=O)Nc4ccc(C)cc4C)c(-c4ccc(Br)cc4)c3c2N)c1 | active: 8.91 µM | –
O=C(c1ccc(F)cc1)N1C[C@H]2OC(=O)N(CCCN3CCOCC3)[C@H]2C1 | inactive | –
CCC1C(=O)N(C)CCN1C(=O)c1coc(COc2ccc3c(c2)OCO3)n1 (stereo not drawn) | inactive | –
CNC(=O)C1CCN(C(=O)c2ccc(-c3ncc4cnc(-c5ccccc5)cn34)cc2)CC1 | inactive | –

SMILES | Potency | activity, negative = inhibition
Cc1cccc(OCCc2noc(C3CN(C(=O)CCC4CCCC4)C3)n2)c1 | inconclusive: 17.8 µM [inhibitor, single point] | –
O=C1NCc2ccccc2CC12CCCN2Cc1ccc(Cl)cc1 (stereo not drawn) | inactive | –
O=C(C1Cn2cccc2C(=O)N1Cc1cccnc1)N1CCN(c2ncccn2)CC1 (stereo not drawn) | inconclusive: 17.8 µM [inhibitor, single point] | –
O=C1NC(=O)[C@@H]2CN(C(=O)c3coc(COc4ccc5c(c4)OCO5)n3)C[C@H]12 | inactive | –
NC(=O)C1(N2CCCCC2)CCN(C(=O)Nc2ccc(Cl)c(Cl)c2)CC1 | inactive | –
Cc1ccc(S(=O)(=O)N(Cc2nc(-c3ccc(Cl)cc3)no2)C2CCCCC2)cc1 | inconclusive: 17.8 µM [inhibitor, single point] | –
CN(C)CCNC(=O)c1nc(-c2ccc(N3CCN(C)CC3)cc2)cc2c1ccn2C | active: 11.2 µM | –
CC(=O)c1ccc(NC(=O)NC[C@H]2C[C@@H]3CCN2C[C@@H]3CN2CCC(C)CC2)cc1 | inactive | –
CC(C)c1noc([C@@H]2C[C@H]3C(=O)NCCCCCCN(C(=O)CCC4CCCC4)[C@H]3C2)n1 | inactive | –
Fc1ccc(-c2noc([C@@H]3Cc4nc[nH]c4CN3Cc3cc4ccccc4o3)n2)cc1Cl | inconclusive: 10 µM [inhibitor, partial curve, poor fit] | –
O=C(c1nnc(COc2cc(F)cc(F)c2)n1-c1ccccc1)N1CCC[C@@H]1c1cccc(F)c1 | inconclusive: 3.55 µM [inhibitor, single point] | –
CCc1ccc(C(=O)N2C[C@@H](CO)[C@H](c3nc(CCOC)no3)C2)cc1 | inconclusive: 17.8 µM [inhibitor, single point] | –
O=c1cc(-c2ccccn2)oc2c(Nc3cccnc3)nccc12 | inconclusive: 4.47 µM [inhibitor, single point] | –
Cc1cc(C(=O)Nc2ccc([C@H]3OCC(=O)N(C)[C@@H]3CO)cc2)n(C)n1 | inactive | –
CCOC(=O)N1CCc2c(sc3c2c(=O)n(Cc2ccccc2)c(=O)n3CC(=O)Nc2ccccc2F)C1 | inconclusive: 6.31 µM [inhibitor, partial curve, poor fit] | –
CCCCOc1ccc(C(=O)N2CCC[C@H]2c2nc(-c3ccccc3)no2)cc1 | inconclusive: 3.98 µM [inhibitor, single point] | –
O=C(NC1CC1)C1COC2(CCN(C(=O)c3ccc(F)cc3)CC2)N1C(=O)c1cccc(F)c1 (stereo not drawn) | inconclusive: 1.58 µM [inhibitor, partial curve] | –
COc1ccc(OC)c(NC(=O)Cn2cc(C(=O)c3cccs3)c3ccccc32)c1 | inconclusive: 4.47 µM [inhibitor, partial curve, poor fit] | –
COc1cc2c(cc1OC1CCCC1)NC(=O)C21CCN(Cc2nccs2)CC1 | inconclusive: 0.316 µM [inhibitor, full curve] | –
O=C1CC(c2ccccc2)N(C(=O)CNC(=O)c2ccc3ncccc3c2)CCCCCCN1 (stereo not drawn) | inconclusive: 11.2 µM [inhibitor, single point] | –
Cc1ccc2nc(Nc3ccc(Br)cc3)nc(-c3ccccc3)c2c1 | inconclusive: 17.8 µM [inhibitor, single point] | –

SMILES | Potency | activity, negative = inhibition
NC(=O)c1cccc(CN2CCCC3(Cc4ccccc4N(C(=O)C4CCCC4)C3)C2)c1 (stereo not drawn) | inconclusive: 7.94 µM [inhibitor, partial curve] | –
CCOc1ccc2oc(=O)cc(CN3CCN(C(=O)c4ccc(Cl)cc4)CC3)c2c1 | inconclusive: 17.8 µM [inhibitor, single point] | –
O=C1CC(c2ccccc2)N(C(=O)CNS(=O)(=O)Cc2ccccc2)CCCCCN1 (stereo not drawn) | inactive | –
COc1ccc(/C=C/C(=O)Nc2ccc(Cl)c(Cl)c2)cc1OC | inconclusive: 17.8 µM [inhibitor, single point] | –
Cc1cnc(CN(C)c2cc(C3CC(O)C3)nc(N)n2)[nH]1 (stereo not drawn) | inactive | –
CCOc1ccc(NC(=O)c2cc(CN3CCCC3)on2)cc1 | inconclusive: 11.2 µM [inhibitor, partial curve, poor fit] | –
Cc1cc(Nc2cccc(F)c2)n2nc(-c3ccco3)nc2n1 | inactive | –
COCCNC(=O)C1CN(c2cccc(Cl)c2)C(=O)N1 (stereo not drawn) | inactive | –
Cc1noc(C)c1-c1cc2cc(CN(C)C)oc2c(NCC(C)C)n1 | inconclusive: 3.98 µM [inhibitor, full curve, poor fit] | –
CN(C)[C@@H]1CN(C(=O)c2ccccc2)CC[C@]1(O)c1ccccc1 | – | inactive: 19.6% [at 5.79 µM]
CS(=O)(=O)N1Cc2ccccc2CC2(CCCCN2Cc2cccnc2)C1 (stereo not drawn) | inconclusive: 11.2 µM [inhibitor, partial curve] | –
O=C(O)c1ccc(CN2CC(CNC(=O)c3ccccc3)C3(C2)CN(c2ccccc2)C3)cc1 (stereo not drawn) | inconclusive: 11.2 µM [inhibitor, single point] | –
Cc1cccc(CN2C(=O)c3ccccc3Sc3ccc(C(=O)NCCc4ccccc4)cc32)c1 | inconclusive: 17.8 µM [inhibitor, single point] | –
O=C(CN1CC2CC(C1)[C@H]1CCCC(=O)N1C2)NCc1cccc(Cl)c1 (stereo partly drawn) | inactive | –
CCn1c(=O)c2ccnn2c2ccc(C(=O)NCc3ccccc3)cc21 | inactive | –
COc1ccc(N2CC(C(=O)N3CCC(C(=O)NC4CC4)C3)NC2=O)cc1 (stereo not drawn) | inconclusive: 20 µM [inhibitor, single point] | –
O=C(OCc1ccccc1)N1CCC2(CC1)C(=O)NN=C2c1ccncc1 | inconclusive: 3.16 µM [inhibitor, single point] | –
CC1(C)[C@H](Cc2cc(CCO)on2)C[C@@H]1NCc1ccccc1F | inconclusive: 15.8 µM [inhibitor, single point] | –
CC(=O)Nc1ccc(S(=O)(=O)N[C@H]2CO[C@H]3[C@@H]2OC[C@@H]3n2nnnc2Oc2ccc3c(c2)OCO3)cc1 | inconclusive: 3.98 µM [inhibitor, single point] | –
CCOc1ccc(NC(=O)c2ccc(-c3nnc4ccc(NC(=O)C5CC5)cn34)cc2)cc1 | inconclusive: 0.398 µM [inhibitor, full curve, poor fit] | –
CNCc1cccc(OC(F)(F)F)c1 | inconclusive: 7.94 µM [inhibitor, full curve, poor fit] | –
